The supplement of paper PMC10126150
Sequences with one replicate were seen in a single cluster, so their values are uncertain.

Tested on: ATP
Experiment: switch fluorescence ratio, 500 uM ATP over buffer (Cy3 cluster intensity, sum of 5 cycles each) (fold (ratio)); higher = stronger signal-on switching upon ATP binding; sequences stand for … in TCGTCGGCAGCGTCAGATGTGTATAAGAGACAGTTTTTTTTTTTTTTTTTTTTTTTTT…TC
Conditions: aptamer strand: ATP DNA aptamer (quencher-CACCTGGGGGAGTATTGCGGAGGAAGG + anchor), 100 nM annealed; ATP concentration: 500 uM; one replicate
How it was run: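 Between each of five buffer/ATP cycles, the flow-cell was stripped with NaOH and re-annealed. Each cycle imaged Cy3-labelled switching-strand clusters, annealed to 100 nM quencher-labelled ATP aptamer on a modified Illumina MiSeq flow-cell, first in selection buffer and then after 15 min with 500 uM ATP at 22 °C. The fluorescence ratio is summed target-cycle over summed buffer-cycle Cy3 intensity per cluster, averaged per switch-domain sequence, with clusters outside 100-1000 RFU excluded.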
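Further: ATP exposure 15 min at 22 °C before imaging.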

Row | Sequence | switch fluorescence ratio
1 | CATATTCGAG | 1.01
2 | CATATTGGT | 1.01
3 | CATATTTTTC | 1.02
4 | CATCAAATCA | 0.998
5 | CATCAAATTG | 1.01
6 | CATCACATTT | 1.05
7 | CATCACGAGT | 1.01
8 | CATCACGCCG | 0.962
9 | CATCATAGGT | 1.06
10 | CATCCAAGC | 1.21
11 | CATCCTTATT | 1.14
12 | CATCGGTTAG | 0.96
13 | CATCGGTTGC | 1.09
14 | CATCGTAGGT | 1.02
15 | CATCGTCGTT | 1.01
16 | CATCTAG | 0.939
17 | CATCTAGAAC | 1.21
18 | CATCTATTGT | 1
19 | CATCTCAACT | 1.01
20 | CATCTCTGAT | 0.985
21 | CATCTGAACG | 1.05
22 | CATCTGCCAG | 1.17
23 | CATCTGTTAC | 2.46
24 | CATCTTGATT | 0.955
25 | CATGAAACTA | 1.03
26 | CATGACCGAC | 1.34

Row | Sequence | switch fluorescence ratio
27 | CATGACGGAG | 1.07
28 | CATGAGTGAG | 0.949
29 | CATGATATGT | 0.994
30 | CATGCAGCA | 1
31 | CATGCGGAGG | 1.01
32 | CATGCGTTGC | 1.04
33 | CATGGAAGCT | 1.08
34 | CATGGACAGA | 1.05
35 | CATGGACCTT | 0.964
36 | CATGGACGAT | 1.04
37 | CATGGAGTAT | 0.963
38 | CATGGCCTAG | 1
39 | CATGGCGCGG | 1
40 | CATGGCGTCC | 0.956
41 | CATGGGACCT | 1.11
42 | CATGGGTCA | 0.987
43 | CATGGGTCCG | 0.986
44 | CATGGTACTG | 1.1
45 | CATGTAAGCC | 1
46 | CATGTAGTCA | 1.01
47 | CATGTCAGGT | 0.981
48 | CATGTCCCCC | 0.998
49 | CATGTGATCA | 1.03
50 | CATGTGTCAA | 1.04
51 | CATGTGTCTC | 0.983
52 | CATGTTCCG | 0.986

Row | Sequence | switch fluorescence ratio
53 | CATGTTGAA | 0.955
54 | CATGTTGGCG | 0.997
55 | CATTAAAAAA | 0.932
56 | CATTACCCAG | 1.12
57 | CATTACCGTT | 1.02
58 | CATTACCTAA | 1.04
59 | CATTACTC | 1.54
60 | CATTACTGCA | 1.1
61 | CATTAGCCCA | 1.04
62 | CATTATAGAG | 0.959
63 | CATTATGAAC | 1.04
64 | CATTCTATGT | 0.994
65 | CATTCTGTGG | 0.997
66 | CATTCTTTTA | 1
67 | CATTGAATGC | 1.08
68 | CATTGACCTA | 1.07
69 | CATTGATTAC | 1.02
70 | CATTGCCACG | 1.01
71 | CATTGCGAGC | 1.04
72 | CATTGCTGTC | 1.08
73 | CATTGCTTTC | 1.01
74 | CATTGGCAAG | 1.15
75 | CATTGGGTAC | 1.02
76 | CATTGTAGGC | 0.979
77 | CATTGTGATT | 1.04
78 | CATTGTGCGG | 0.995

Row | Sequence | switch fluorescence ratio
79 | CATTGTTTGG | 0.977
80 | CATTTACGTA | 1.17
81 | CATTTAGCGT | 0.95
82 | CATTTAGGCA | 0.995
83 | CATTTAGTCG | 0.977
84 | CATTTATCC | 1.03
85 | CATTTATTGA | 0.966
86 | CATTTCTCCC | 1.01
87 | CATTTGGCTC | 0.96
88 | CATTTGGCTG | 1.03
89 | CATTTGTCAT | 1.01
90 | CATTTGTGCA | 1.01
91 | CATTTGTTGT | 0.978
92 | CATTTTCCGT | 1.03
93 | CATTTTCTGG | 1.02
94 | CCAAAAAAGT | 1
95 | CCAAAAAGGT | 1.06
96 | CCAAAGCAGA | 4.05
97 | CCAAAGCGCT | 0.988
98 | CCAAAGGAG | 0.986
99 | CCAAATTCAT | 0.992
100 | CCAACGACAT | 2.09
101 | CCAACGATGG | 1.05
